This passage reports viability index results from the supplement of paper PMC4723716.

Each structure is given as a SMILES string. ± gives the uncertainty stated by the source. Whole data set: some 9,900 compounds, median “viability index relative to DMSO control” near 1, cut for the lowest 2% near 0.85. The list shows a part of the results.

The test system of this experiment is Plasmodium falciparum NF54 stage V gametocytes. The experiment in a line: viability index relative to DMSO control (fraction); higher = less gametocyte killing. Particulars: 2.5 µM, library set: Broad Institute DOS, incubation time: 72 h. Here is the method: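 Broad DOS informer set and blood-stage-active DOS compounds screened in duplicate at 2.5 µM against P. falciparum NF54 stage V gametocytes with the serum-free one-step SaLSSA (1536-well): 72 h at 37 °C under low oxygen, then saponin lysis and MitoTracker Red CMXRos staining, with high-content imaging. Viability index = viable-object count divided by the plate mean of DMSO wells (0 = killed, about 1 = inactive).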

For `O=C(C[C@H]1CC[C@H](NC(=O)c2ccc(F)cc2)[C@H](CO)O1)NCCc1ccccc1`, the viability index is 1.19 ± 0.084.
The same measure for `CC[C@@H]1C/C=C\C[C@H](c2ccc(OC)cc2OC)NC(=O)[C@H](C)CC(=O)N1`: 1.01 ± 0.058.
The same measure for `C[C@@H]1CCCCO[C@@H](CN(C)Cc2ccc(Cl)c(Cl)c2)[C@@H](C)CN([C@H](C)CO)C(=O)c2cc(NC(=O)c3ccncc3)ccc2O1`: 1.01 ± 0.094; for `COc1ccc(C#Cc2ccc([C@@H]3[C@@H](CO)N4CCCCN(C)C[C@H]34)cc2)cc1`: 1.09 ± 0.063.
Turning to `CCS(=O)(=O)N1[C@H](CO)[C@H](c2ccccc2)[C@H]1CN(C(C)=O)C1CCCC1`, the viability index was determined as 0.978 ± 0.0092.
The compound `N#C[C@@H]1[C@H](c2ccccc2-c2cccc(F)c2)[C@H](CO)N1S(=O)(=O)c1cccc(F)c1` came in with a viability index of 0.933 ± 0.066.
For `O=C1CCC(=O)N[C@H](c2ccc3c(c2)OCO3)C/C=C\CCN1` the value was 1.06 ± 0.017; for `CNC[C@@H]1OCCCC[C@@H](C)Oc2ccc(NC(=O)Nc3ccc(OC)cc3)cc2C(=O)N([C@H](C)CO)C[C@@H]1C`, 1.14 ± 0.024; for `N#C[C@H]1[C@H](c2ccc(C#Cc3cccc(F)c3)cc2)[C@@H](CO)N1C(=O)C1CCOCC1`, 1.12 ± 0.025.
As for `COC(=O)C[C@H]1CC[C@@H]2[C@H](COC[C@H](O)CN2S(=O)(=O)c2ccccc2OC)O1`, the viability index was 1.06 ± 0.019.
`CC(=O)N1[C@@H](CO)[C@@H](c2ccccc2)[C@@H]1CN(CC1CCC1)C(=O)CN(C)C`: the viability index came to 1.03 ± 0.047.
Turning to `C/C=C/c1ccc([C@@H]2[C@@H](CO)N3C(=O)CN(Cc4ccc(F)cc4)C[C@@H]23)cc1`, the viability index was 1.074 ± 0.0064.
The same measure for `O=C(NCCN1CCCC1)[C@H]1[C@H](CO)[C@H]2Cn3c(cccc3=O)[C@H]2N1Cc1ccccn1`: 1.06 ± 0.055; for `O=C(C[C@@H]1CC[C@H]2[C@@H](COC[C@@H](O)CN2C(=O)c2cccnc2)O1)NCC1CC1`: 1.1 ± 0.11; for `C[C@H](NC(=O)C[C@@H]1C[C@H]2c3cc(NS(=O)(=O)c4ccc(F)cc4)ccc3O[C@H]2[C@@H](CO)O1)c1ccccc1`: 1.083 ± 0.0022.
The compound `C[C@@H]1CN([C@@H](C)CO)S(=O)(=O)c2ccc(-c3ccncc3)cc2O[C@H]1CN(C)S(C)(=O)=O` had a viability index of 0.934 ± 0.054.
`CCC(=O)N1C[C@@]2(C1)CN(Cc1cccc(Cl)c1)[C@H](CO)c1[nH]c3cc(OC)ccc3c21`: the viability index is 1.01 ± 0.033.
As to `Cc1ccc(S(=O)(=O)N2CC[C@@H]3[C@@H](CO)Nc4ccc(-c5cccc(C(=O)N(C)C)c5)cc4[C@@H]32)cc1`, the viability index was 0.837 ± 0.012.
For `COCCNC[C@H]1[C@H](c2ccccc2)[C@H](CO)N1c1nc(C)c(C)s1` the value was 0.97 ± 0.012.
The same measure for `CCNC(=O)C[C@@H]1CC[C@@H]2[C@H](COC[C@@H](O)CN2C(=O)c2ccccn2)O1`: 1.065 ± 0.0067.
`OC[C@@H]1[C@@H]2c3ccccc3NC[C@@H]2N1CC1CCOCC1` showed a viability index of 1.02 ± 0.058.
For `CN1C(=O)c2cc(NC(=O)c3cscn3)ccc2OC[C@H]2O[C@H](CC(=O)NCc3ccc(Cl)c(Cl)c3)CC[C@@H]21` the value was 1.02 ± 0.095; for `CCCNC(=O)N1C[C@H](O)COC[C@H]2O[C@H](CC(=O)OC)CC[C@@H]21`, 1.105 ± 0.0098; for `COCC(=O)Nc1ccc2c(c1)OC[C@H](C)N(C)C[C@@H](C)[C@H](OC)CN(C)C2=O`, 0.9536 ± 0.0082.
For `CCC(=O)N[C@@H]1CC[C@H](CC(=O)NCc2ccccc2F)O[C@@H]1CO` the value was 1.05 ± 0.13.
For `COc1cccc(C#Cc2ccc([C@@H]3[C@@H](CO)N(C(=O)c4ccccn4)[C@H]3C#N)cc2)c1` the value was 1.012 ± 0.0077; for `O=C(c1cccnc1)N1CC(=O)N2[C@@H](CO)[C@H](c3ccc(-c4ccccc4F)cc3)[C@@H]2C1`, 1 ± 0.039; for `C[C@@H]1CN([C@@H](C)CO)C(=O)c2cc(-c3ccc(C#N)cc3)cnc2O[C@H]1CN(C)Cc1cccnc1`, 1.06 ± 0.056.
Compound `O=C(C[C@@H]1CC[C@@H](NC(=O)Nc2ccc(C(F)(F)F)cc2)[C@@H](CO)O1)NCc1cccc(F)c1` returned a viability index of 1.134 ± 0.011.
For `CCCC#Cc1cnc2c(c1)C(=O)N([C@@H](C)CO)C[C@@H](C)[C@H](CN(C)C(=O)Nc1cc(F)ccc1F)O2` the value was 1.05 ± 0.041; for `C[C@H](CO)N1C[C@H](C)[C@H](CN(C)C(=O)NC2CCCC2)Oc2cc(-c3cncnc3)ccc2S1(=O)=O`, 0.976 ± 0.11.
The same measure for `COc1ccc2c3c([C@@H](CO)N(C)C[C@]33CN(CC4CC4)C3)n(C)c2c1`: 1.04 ± 0.048; for `CN1C(=O)c2cc(NC(=O)c3cccc(Cl)c3)ccc2OC[C@H]2O[C@H](CC(=O)NC3CCCCC3)CC[C@@H]21`: 1.11 ± 0.11; for `CO[C@@H]1CN(C)C(=O)c2ccc(NC(=O)C3CCC3)cc2OC[C@H](C)N(Cc2ccccn2)C[C@H]1C`: 1.08 ± 0.046.
With `C/C=C/c1ccc([C@@H]2[C@@H](CN(C)C(C)=O)N(C(=O)NC(C)C)[C@H]2CO)cc1`, the viability index stood at 1.06 ± 0.016.
